Laboratory results as given in PubChem BioAssay (NCI).
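A five-concentration, 48-hour dose response in 96-well plates underlies each endpoint, interpolated linearly between surrounding concentrations. The concentration for 50% growth inhibition is given as GI50.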 The source holds more than one record for some entries. Only these are listed. There may be further records. The tests behind the records often covered other concentration ranges, not given here; a value can be the end of its range.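 TGI: concentration producing complete growth inhibition.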

What was measured:
Experiment in all cases: NCI tumour cell line growth inhibition, 48 h
[1] = system: RPMI-8226 leukemia
[2] = system: KM12 colon
[3] = system: PC-3 prostate
[4] = system: SK-MEL-5 melanoma
[5] = system: IGROV1 ovarian
[6] = system: A549 NSCLC
[7] = system: LOX IMVI melanoma
[8] = system: MOLT-4 leukemia
[9] = system: SK-MEL-28 melanoma
[10] = system: DU-145 prostate
[11] = system: OVCAR-5 ovarian
[12] = system: NCI-H226 lung
[13] = system: MALME-3M melanoma
[14] = system: MDA-MB-435
[15] = system: UACC-257 melanoma
[16] = system: BT-549 breast
[17] = system: HT29 colon
[18] = system: SNB-19 CNS
[19] = system: HCC-2998 colon
[20] = system: SF-268 CNS
[21] = system: NCI-H522 lung
[22] = system: MDA-MB-231 breast
[23] = system: SN12C renal
[24] = system: OVCAR-3 ovarian
[25] = system: A498 renal
[26] = system: OVCAR-4 ovarian
[27] = system: TK-10 renal
[28] = system: SF-295 CNS
[29] = system: HCT-116 colon
[30] = system: NCI-H23 lung
[31] = system: UO-31 renal
[32] = system: U251 CNS
[33] = system: ACHN renal
[34] = system: HCT-15 colon
[35] = system: NCI-H460 lung
[36] = system: HS 578T breast
[37] = system: EKVX NSCLC
[38] = system: SNB-75 CNS
[39] = system: OVCAR-8 ovarian
[40] = system: 786-0 renal
[41] = system: HOP-62 NSCLC
[42] = system: COLO 205 colon
[43] = system: HOP-92 NSCLC
[44] = system: SW-620 colon

In the case of COC(=O)[C@H](Cc1ccccc1)NNC(=O)c1csc([C@@H](C[C@H](C(C)C)N(C)C(=O)[C@@H](NC(=O)[C@H]2CCCCN2C)C2CC2)OC(C)=O)n1, the GI50 [1] was 3.61 nM, 2.5 nM, 31.3 nM, the GI50 [2] was 56.3 nM, 2.5 nM, 469 nM and the GI50 [3] was 29.4 nM, 2.5 nM, 123 nM. For the same compound, the GI50 [4] was 7.65 nM, 2.5 nM, 29.9 nM, the GI50 [5] was 6.12 nM, 2.5 nM, 50.7 nM and the GI50 [6] was 91.6 nM, 2.5 nM, 416 nM. The GI50 [7] was 17.2 nM, 2.5 nM, 53.8 nM, the GI50 [8] was 4.62 nM, 2.5 nM, 35 nM and the GI50 [9] was 204 nM, 2.5 nM, 2.73 µM. For the same compound, the GI50 [10] was 5.47 nM, 2.5 nM, 38.8 nM, the GI50 [11] was 298 nM, 2.5 nM, 5.08 µM and the GI50 [12] was 101 nM and > 100 µM. For the same compound, the GI50 [13] was 68.8 nM and > 100 µM, the TGI [14] was 17.7 nM and 1.16 µM and the GI50 [15] was 280 nM, > 25 µM, 28.3 µM. The GI50 [16] was 8.3 nM, 2.5 nM, 41.7 nM, the GI50 [17] was 13.6 nM, 2.5 nM, 49.6 nM and the GI50 [18] was 32.5 nM, > 25 µM, 69.6 nM. For the same compound, the GI50 [19] was 99.2 nM, 2.5 nM, 6.7 µM, the GI50 [20] was 73.8 nM, 2.5 nM, 326 nM and the TGI [21] was 32.4 nM and 24.7 µM. The GI50 [22] was 32.6 nM, 2.5 nM, 180 nM, the TGI [22] was 672 nM and > 100 µM and the GI50 [23] was 8.33 nM, 2.5 nM, 62.7 nM. For the same compound, the TGI [24] was 10.2 nM and 2.09 µM, the GI50 [25] was 8.76 nM, 2.5 nM, 590 nM and the TGI [25] was 205 nM, 11.5 µM, > 100 µM. The GI50 [26] was 72 nM, 465 nM, 6.62 µM, the GI50 [27] was 2.5 nM and > 100 µM and the GI50 [28] was 51.6 nM, 2.5 nM, 342 nM. For the same compound, the GI50 [29] was 31.2 nM, 2.5 nM, 39.1 nM, the GI50 [30] was 51.8 nM, 2.5 nM, 588 nM and the GI50 [31] was 156 nM, 2.5 nM, 639 nM. For the same compound, the GI50 [32] was 28.7 nM, 2.5 nM, 219 nM, the GI50 [33] was 64.9 nM, 2.5 nM, 168 nM and the GI50 [34] was 189 nM, 2.5 nM, 1.05 µM. The GI50 [35] was 25.5 nM, 2.5 nM, 54.7 nM, the GI50 [36] was 4.94 nM and 82.7 nM and the GI50 [37] was 61.9 nM and 831 nM. For the same compound, the GI50 [38] was 2.99 nM, 2.5 nM, 34.8 nM, the TGI [38] was 71.5 nM, 25 µM, > 100 µM and the GI50 [39] was 32.7 nM, 2.5 nM, 60.2 nM. The GI50 [40] was 45 nM, 2.5 nM, 568 nM, the GI50 [41] was 37.4 nM, 2.5 nM, 74.1 nM and the GI50 [42] was 10 nM, 2.5 nM, 39.6 nM. The TGI [42] was 162 nM, 40.2 nM, 1.06 µM, the GI50 [43] was 14.2 nM, 2.5 nM, 736 nM and the TGI [43] was 717 nM, 25 µM, > 100 µM. For the same compound, the GI50 [44] was 6.76 nM, 2.5 nM, 36.1 nM.
